# Assay results as given in the supplement of paper PMC8728848.
# Some of the results follow.
# B1: PX9961A-pdi-456-24-456 (Parabacteroides distasonis) (protein)
# chain: KTSSTQLPTIDAISSVADLTNAVNGVYEQQATEVGSYGAEFTLLADLRSGDFQSISTVNHAGPMYRYQTGKNDEMVYSFYKLFYNSLARLNNVLAAAENLEGADVDILKGELYAMRALYHFDLARVFAKLPSTTDMNDLGIVLSTEVYPTDYIGTRATLQQTYDQILKDIETALPLLSKDKQTGHINYWGALAIRARAYLYLEKNKEALADCKEIIASSPYKLYTRDEYIGAWDKEGTNEAIFEILVTPNYNAQRNSIGYFTHASGYGECAATESFLEELAKHPGDIRTELFAKETDNGYDGTYPQKYKGRDGQIYVNNPKVVRLSEVYLIAAEAALKAGDTSAAAGYMNTLRKNRIENYTDVASITLDDILLERRLELFTEGHTAWDAWRNGKSVNNKFVGEVKPGDYRTIMAIPIGEITVSRGQLIQNPGY
# Tests used:
# Assay in all cases: glycan array binding signal (z-score within array); higher = stronger binding
# Conditions in all cases: glycan notation: IUPAC condensed, linker removed
# [1] = target: Fuc(a1-2)Gal
# Outline: (§1)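 Glycan array data were curated from 3228 arrays in the Consortium for Functional Glycomics database and kept only where the protein sequence was available. Glycan names were converted to IUPAC-condensed notation, and columns mapping to the same glycan were averaged. The binding signal is a within-array Z-score, averaged across arrays of the same protein sequence at different concentrations or buffers and across linkers. Negative Z-scores can be read as non-binding.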
# [2] = target: Fuc(a1-2)Gal(b1-3)GalNAc
# Outline: as §1
# [3] = target: Fuc(a1-2)Gal(b1-3)GalNAc(a1-3)[Fuc(a1-2)]Gal(b1-4)Glc
# Outline: as §1
# [4] = target: Fuc(a1-2)Gal(b1-3)GalNAc(a1-3)[Fuc(a1-2)]Gal(b1-4)GlcNAc
# Outline: as §1
# [5] = target: Fuc(a1-2)Gal(b1-3)GalNAc(b1-3)Gal
# Outline: as §1
# [6] = target: Fuc(a1-2)Gal(b1-3)GalNAc(b1-3)Gal(a1-4)Gal(b1-4)Glc
# Outline: as §1
# [7] = target: Fuc(a1-2)Gal(b1-3)GalNAc(b1-4)[Neu5Ac(a2-3)]Gal(b1-4)Glc
# Outline: as §1
# [8] = target: Fuc(a1-2)Gal(b1-3)GlcNAc
# Outline: as §1
# [9] = target: Fuc(a1-2)Gal(b1-3)GlcNAc(b1-2)Man(a1-3)[Fuc(a1-2)Gal(b1-3)GlcNAc(b1-2)Man(a1-6)]Man(b1-4)GlcNAc(b1-4)GlcNAc
# Outline: as §1
# [10] = target: Fuc(a1-2)Gal(b1-3)GlcNAc(b1-2)Man(a1-3)[Fuc(a1-2)Gal(b1-3)GlcNAc(b1-2)Man(a1-6)]Man(b1-4)GlcNAc(b1-4)[Fuc(a1-6)]GlcNAc
# Outline: as §1
# [11] = target: Fuc(a1-2)Gal(b1-3)GlcNAc(b1-3)Gal(b1-4)Glc
# Outline: as §1
# [12] = target: Fuc(a1-2)Gal(b1-3)GlcNAc(b1-3)GalNAc
# Outline: as §1
# [13] = target: Fuc(a1-2)Gal(b1-3)GlcNAc(b1-3)[Fuc(a1-2)Gal(b1-3)GlcNAc(b1-6)]GalNAc
# Outline: as §1
# [14] = target: Fuc(a1-2)Gal(b1-3)GlcNAc(b1-3)[Gal(b1-4)GlcNAc(b1-6)]Gal(b1-4)Glc
# Outline: as §1
# [15] = target: Fuc(a1-2)Gal(b1-3)GlcNAc(b1-3)[Neu5Ac(a2-6)Gal(b1-4)GlcNAc(b1-6)]Gal(b1-4)Glc
# Outline: as §1
# [16] = target: Fuc(a1-2)Gal(b1-3)GlcNAc6S
# Outline: as §1
# [17] = target: Fuc(a1-2)Gal(b1-3)[Fuc(a1-4)]GlcNAc
# Outline: as §1
# [18] = target: Fuc(a1-2)Gal(b1-3)[Fuc(a1-4)]GlcNAc(b1-2)Man(a1-3)[Fuc(a1-2)Gal(b1-3)[Fuc(a1-4)]GlcNAc(b1-2)Man(a1-3)]Man(b1-4)GlcNAc(b1-4)GlcNAc
# Outline: as §1
# [19] = target: Fuc(a1-2)Gal(b1-3)[Fuc(a1-4)]GlcNAc(b1-2)Man(a1-3)[Fuc(a1-2)Gal(b1-3)[Fuc(a1-4)]GlcNAc(b1-2)Man(a1-6)]Man(b1-4)GlcNAc(b1-4)[Fuc(a1-6)]GlcNAc(b1-4)[Fuc(a1-6)]GlcNAc
# Outline: as §1
# [20] = target: Fuc(a1-2)Gal(b1-3)[Fuc(a1-4)]GlcNAc(b1-3)[Fuc(a1-3)[Gal(b1-4)]GlcNAc(b1-6)]Gal(b1-4)Glc
# Outline: as §1
# [21] = target: Fuc(a1-2)Gal(b1-3)[Fuc(a1-4)]GlcNAc(b1-3)[Gal(b1-4)GlcNAc(b1-6)]Gal(b1-4)Glc
# Outline: as §1
# [22] = target: Fuc(a1-2)Gal(b1-4)Fuc(a1-3)]GlcNAc(b1-2)Man(a1-3)[Fuc(a1-2)Gal(b1-4)[Fuc(a1-3)]GlcNAc(b1-2)Man(a1-6)]Man(b1-4)GlcNAc(b1-4)GlcNAc
# Outline: as §1
# [23] = target: Fuc(a1-2)Gal(b1-4)Glc
# Outline: as §1
# [24] = target: Fuc(a1-2)Gal(b1-4)Glc6S
# Outline: as §1
# [25] = target: Fuc(a1-2)Gal(b1-4)GlcNAc
# Outline: as §1
# [26] = target: Fuc(a1-2)Gal(b1-4)GlcNAc(b1-2)Man
# Outline: as §1
# [27] = target: Fuc(a1-2)Gal(b1-4)GlcNAc(b1-2)Man(a1-3)[Fuc(a1-2)Gal(b1-4)GlcNAc(b1-2)Man(a1-6)]Man(b1-4)GlcNAc(b1-4)GlcNAc
# Outline: as §1
# [28] = target: Fuc(a1-2)Gal(b1-4)GlcNAc(b1-2)Man(a1-3)[Fuc(a1-2)Gal(b1-4)GlcNAc(b1-2)Man(a1-6)]Man(b1-4)GlcNAc(b1-4)[Fuc(a1-6)]GlcNAc
# Outline: as §1
# [29] = target: Fuc(a1-2)Gal(b1-4)GlcNAc(b1-2)[Fuc(a1-2)Gal(b1-4)GlcNAc(b1-4)]Man(a1-3)[Fuc(a1-2)Gal(b1-4)GlcNAc(b1-2)Man(a1-6)]Man(b1-4)GlcNAc(b1-4)GlcNAc
# Outline: as §1
# [30] = target: Fuc(a1-2)Gal(b1-4)GlcNAc(b1-3)Gal(b1-4)GlcNAc
# Outline: as §1
binder,measurement,setting,value
B1,glycan array binding signal (z-score),[1],-0.421
same,glycan array binding signal (z-score),[2],-0.251
same,glycan array binding signal (z-score),[3],-0.331
same,glycan array binding signal (z-score),[4],-0.512
same,glycan array binding signal (z-score),[5],-0.487
same,glycan array binding signal (z-score),[6],-0.216
same,glycan array binding signal (z-score),[7],-0.355
same,glycan array binding signal (z-score),[8],-0.333
same,glycan array binding signal (z-score),[9],-0.154
same,glycan array binding signal (z-score),[10],-0.384
same,glycan array binding signal (z-score),[11],-0.276
same,glycan array binding signal (z-score),[12],-0.082
same,glycan array binding signal (z-score),[13],-0.086
same,glycan array binding signal (z-score),[14],-0.124
same,glycan array binding signal (z-score),[15],0.197
same,glycan array binding signal (z-score),[16],0.178
same,glycan array binding signal (z-score),[17],-0.249
same,glycan array binding signal (z-score),[18],0.484
same,glycan array binding signal (z-score),[19],0.196
same,glycan array binding signal (z-score),[20],-0.396
same,glycan array binding signal (z-score),[21],-0.071
same,glycan array binding signal (z-score),[22],0.209
same,glycan array binding signal (z-score),[23],-0.371
same,glycan array binding signal (z-score),[24],-0.312
same,glycan array binding signal (z-score),[25],-0.365
same,glycan array binding signal (z-score),[26],-0.263
same,glycan array binding signal (z-score),[27],-0.237
same,glycan array binding signal (z-score),[28],-0.38
same,glycan array binding signal (z-score),[29],-0.13
same,glycan array binding signal (z-score),[30],-0.394
